This is an account of results in the supplement of paper PMC10369915.

This is one part of the list. Rule as the data show it: active = 3.2 or more and inactive = the rest. Only a few entries rise above the background.
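Also: displayed peptides selected on beads carrying the immobilized SH2 domain, with library peptides lacking any tyrosine serving as negative controls.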

In one assay the target is SHP2 C-SH2 domain E139D. The assay can be described thus: enrichment score (SH2-bound / input frequency) (ratio); bacterial display of known human phosphotyrosine sites (pTyr-Var adds point mutants) read by sequencing; higher = stronger binding; tyrosines were phosphorylated by kinases first. The settings on record: peptide library: pTyr-Var.
In the case of VASSLYDIFAR [GLB1_Y294_L297F], the enrichment score was inactive: 1.57.

Turning to IIWDSYTTNEM [GNB4_Y85_K89E], the enrichment score was inactive: 1.33.

Take IIWDSYTTNKM [GNB4_Y85]: the enrichment score was inactive: 1.35.

For the molecule QEKKGYFEDRR [GLUL_Y336], the enrichment score was inactive: 0.64.

With VNYGAYINDFK [GLB1_Y488], the enrichment score was inactive: 1.27.

Turning to GRQGIYKENER [GPR143_Y231_T232K], the enrichment score is inactive: 1.

Turning to ILNANCMAKRL [GLDC_Y839_Y839C], the enrichment score is inactive: 0.781.

Turning to MGCVNYGAFIN [GLB1_Y485_R482C_YF], the enrichment score is inactive: 0.84.

As for IVWDSYTTNKV [GNB3_Y85], the enrichment score is inactive: 1.14.

Turning to GKVADYIPQLP [GLS_Y249_A254P], the enrichment score was inactive: 0.994.

As for CNRADYSKLAS [GNE_Y22_P27S], the enrichment score is inactive: 0.558.

Consider VKYGAYINDFK [GLB1_Y488_N484K], for which the enrichment score is inactive: 1.01.

As to NTILLYHIMAW [GPR143_Y157_S152N], the enrichment score was inactive: 1.86.

GDAMLYYPSVS [GPR143_Y177_A173D]: the enrichment score was inactive: 0.59.

Consider GRQGIYTENER [GPR143_Y231], for which the enrichment score is inactive: 0.606.

On to TIWDSYTTNKV [GNB1_Y85_I80T], for which the enrichment score was inactive: 1.34.

As to GRQGIYTKNER [GPR143_Y231_E233K], the enrichment score was inactive: 0.872.

Turning to VNFGAYINDFK [GLB1_Y488_YF], the enrichment score was inactive: 0.729.

In the next assay the target is SHP2 C-SH2 domain wild-type. The description is as above. To be noted: peptide library: pTyr-Var.
Turning to VASSLYDIFAR [GLB1_Y294_L297F], the enrichment score is inactive: 1.41.

On to IIWDSYTTNEM [GNB4_Y85_K89E], for which the enrichment score is inactive: 1.31.

Take IIWDSYTTNKM [GNB4_Y85]: the enrichment score is inactive: 0.906.

In the case of QEKKGYFEDRR [GLUL_Y336], the enrichment score is inactive: 0.532.

With VNYGAYINDFK [GLB1_Y488], the enrichment score was inactive: 1.37.

As to GRQGIYKENER [GPR143_Y231_T232K], the enrichment score is inactive: 0.821.

As to ILNANCMAKRL [GLDC_Y839_Y839C], the enrichment score was inactive: 0.535.

For MGCVNYGAFIN [GLB1_Y485_R482C_YF], the enrichment score was inactive: 1.08.

IVWDSYTTNKV [GNB3_Y85]: the enrichment score was inactive: 1.14.

As to GKVADYIPQLP [GLS_Y249_A254P], the enrichment score was inactive: 0.863.

For the molecule CNRADYSKLAS [GNE_Y22_P27S], the enrichment score was inactive: 0.906.

For VKYGAYINDFK [GLB1_Y488_N484K], the enrichment score is inactive: 1.1.

As for NTILLYHIMAW [GPR143_Y157_S152N], the enrichment score was inactive: 2.37.

Turning to GDAMLYYPSVS [GPR143_Y177_A173D], the enrichment score is inactive: 0.593.

For the molecule GRQGIYTENER [GPR143_Y231], the enrichment score is inactive: 0.722.

Turning to TIWDSYTTNKV [GNB1_Y85_I80T], the enrichment score is inactive: 1.02.

For the molecule GRQGIYTKNER [GPR143_Y231_E233K], the enrichment score was inactive: 0.611.

Consider VNFGAYINDFK [GLB1_Y488_YF], for which the enrichment score was inactive: 0.79.

In the next assay the target is SHP2 N-SH2 domain L43F. The assay is described as above. To be noted: peptide library: pTyr-Var.
Turning to VASSLYDIFAR [GLB1_Y294_L297F], the enrichment score was inactive: 1.46.

With IIWDSYTTNEM [GNB4_Y85_K89E], the enrichment score is inactive: 1.19.

For IIWDSYTTNKM [GNB4_Y85], the enrichment score was inactive: 0.881.

As to QEKKGYFEDRR [GLUL_Y336], the enrichment score was inactive: 0.629.

For the molecule VNYGAYINDFK [GLB1_Y488], the enrichment score is inactive: 1.29.

Take GRQGIYKENER [GPR143_Y231_T232K]: the enrichment score was inactive: 0.82.

Take ILNANCMAKRL [GLDC_Y839_Y839C]: the enrichment score is inactive: 0.765.

For MGCVNYGAFIN [GLB1_Y485_R482C_YF], the enrichment score was inactive: 0.989.

Regarding IVWDSYTTNKV [GNB3_Y85], the enrichment score was inactive: 1.13.

Regarding GKVADYIPQLP [GLS_Y249_A254P], the enrichment score was inactive: 0.877.

On to CNRADYSKLAS [GNE_Y22_P27S], for which the enrichment score was inactive: 0.796.

Regarding VKYGAYINDFK [GLB1_Y488_N484K], the enrichment score was inactive: 0.985.

NTILLYHIMAW [GPR143_Y157_S152N]: the enrichment score was inactive: 2.12.

As to GDAMLYYPSVS [GPR143_Y177_A173D], the enrichment score is inactive: 0.771.

Turning to GRQGIYTENER [GPR143_Y231], the enrichment score is inactive: 0.643.

As for TIWDSYTTNKV [GNB1_Y85_I80T], the enrichment score is inactive: 1.03.

As to GRQGIYTKNER [GPR143_Y231_E233K], the enrichment score was inactive: 0.791.

On to VNFGAYINDFK [GLB1_Y488_YF], for which the enrichment score was inactive: 0.493.

In a further assay the target is SHP2 N-SH2 domain T42A. The description is as above. The settings on record: peptide library: pTyr-Var.
In the case of VASSLYDIFAR [GLB1_Y294_L297F], the enrichment score was inactive: 1.19.

On to IIWDSYTTNEM [GNB4_Y85_K89E], for which the enrichment score was inactive: 1.16.

As for IIWDSYTTNKM [GNB4_Y85], the enrichment score was inactive: 1.2.

As to QEKKGYFEDRR [GLUL_Y336], the enrichment score is inactive: 0.856.

Turning to VNYGAYINDFK [GLB1_Y488], the enrichment score was inactive: 2.16.

Regarding GRQGIYKENER [GPR143_Y231_T232K], the enrichment score is inactive: 0.723.

For ILNANCMAKRL [GLDC_Y839_Y839C], the enrichment score is inactive: 0.746.

For the molecule MGCVNYGAFIN [GLB1_Y485_R482C_YF], the enrichment score is inactive: 0.69.

As to IVWDSYTTNKV [GNB3_Y85], the enrichment score was inactive: 1.05.

Turning to GKVADYIPQLP [GLS_Y249_A254P], the enrichment score is inactive: 0.829.

Regarding CNRADYSKLAS [GNE_Y22_P27S], the enrichment score was inactive: 0.947.

Consider VKYGAYINDFK [GLB1_Y488_N484K], for which the enrichment score was inactive: 1.55.

NTILLYHIMAW [GPR143_Y157_S152N]: the enrichment score was inactive: 1.66.

Consider GDAMLYYPSVS [GPR143_Y177_A173D], for which the enrichment score is inactive: 0.576.

Take GRQGIYTENER [GPR143_Y231]: the enrichment score was inactive: 0.488.

On to TIWDSYTTNKV [GNB1_Y85_I80T], for which the enrichment score is inactive: 0.889.

With GRQGIYTKNER [GPR143_Y231_E233K], the enrichment score was inactive: 0.725.

As for VNFGAYINDFK [GLB1_Y488_YF], the enrichment score is inactive: 0.534.

The next assay has as its target SHP2 N-SH2 domain T52S. The description is as above. To be noted: peptide library: pTyr-Var.
With VASSLYDIFAR [GLB1_Y294_L297F], the enrichment score was inactive: 1.34.

Turning to IIWDSYTTNEM [GNB4_Y85_K89E], the enrichment score was inactive: 1.25.

As to IIWDSYTTNKM [GNB4_Y85], the enrichment score was inactive: 1.08.

As for QEKKGYFEDRR [GLUL_Y336], the enrichment score is inactive: 0.561.

In the case of VNYGAYINDFK [GLB1_Y488], the enrichment score was inactive: 1.13.

Turning to GRQGIYKENER [GPR143_Y231_T232K], the enrichment score was inactive: 0.69.

With ILNANCMAKRL [GLDC_Y839_Y839C], the enrichment score was inactive: 0.553.

MGCVNYGAFIN [GLB1_Y485_R482C_YF]: the enrichment score was inactive: 0.823.

As for IVWDSYTTNKV [GNB3_Y85], the enrichment score is inactive: 0.959.

In the case of GKVADYIPQLP [GLS_Y249_A254P], the enrichment score was inactive: 0.907.

As to CNRADYSKLAS [GNE_Y22_P27S], the enrichment score was inactive: 0.603.

Turning to VKYGAYINDFK [GLB1_Y488_N484K], the enrichment score is inactive: 0.975.

NTILLYHIMAW [GPR143_Y157_S152N]: the enrichment score was inactive: 1.93.

Regarding GDAMLYYPSVS [GPR143_Y177_A173D], the enrichment score was inactive: 0.613.

As for GRQGIYTENER [GPR143_Y231], the enrichment score was inactive: 0.667.

On to TIWDSYTTNKV [GNB1_Y85_I80T], for which the enrichment score is inactive: 1.13.

For GRQGIYTKNER [GPR143_Y231_E233K], the enrichment score is inactive: 0.658.

On to VNFGAYINDFK [GLB1_Y488_YF], for which the enrichment score is inactive: 0.516.

The next assay addresses SHP2 N-SH2 domain wild-type. The description is as above. To be noted: peptide library: pTyr-Var.
For VASSLYDIFAR [GLB1_Y294_L297F], the enrichment score was inactive: 1.44.

Take IIWDSYTTNEM [GNB4_Y85_K89E]: the enrichment score is inactive: 1.33.

As for IIWDSYTTNKM [GNB4_Y85], the enrichment score is inactive: 1.12.

For QEKKGYFEDRR [GLUL_Y336], the enrichment score is inactive: 0.865.

For VNYGAYINDFK [GLB1_Y488], the enrichment score is inactive: 1.49.

Take GRQGIYKENER [GPR143_Y231_T232K]: the enrichment score was inactive: 0.781.

For the molecule ILNANCMAKRL [GLDC_Y839_Y839C], the enrichment score was inactive: 0.678.

Take MGCVNYGAFIN [GLB1_Y485_R482C_YF]: the enrichment score is inactive: 1.31.

Turning to IVWDSYTTNKV [GNB3_Y85], the enrichment score is inactive: 1.42.

In the case of GKVADYIPQLP [GLS_Y249_A254P], the enrichment score was inactive: 1.09.

Consider CNRADYSKLAS [GNE_Y22_P27S], for which the enrichment score was inactive: 0.924.

For the molecule VKYGAYINDFK [GLB1_Y488_N484K], the enrichment score is inactive: 0.937.

In the case of NTILLYHIMAW [GPR143_Y157_S152N], the enrichment score was inactive: 1.91.

Regarding GDAMLYYPSVS [GPR143_Y177_A173D], the enrichment score was inactive: 0.71.

In the case of GRQGIYTENER [GPR143_Y231], the enrichment score was inactive: 0.662.

With TIWDSYTTNKV [GNB1_Y85_I80T], the enrichment score is inactive: 0.951.

As for GRQGIYTKNER [GPR143_Y231_E233K], the enrichment score is inactive: 0.679.

Take VNFGAYINDFK [GLB1_Y488_YF]: the enrichment score was inactive: 0.733.
